From the supplement of paper PMC4967469

Columns and labels:
Experiment in all cases: Viability of human cancer cell lines after 72 h of drug (GDSC screen)
[1] = compound: COc1cc(C(=O)NC2CCN(C)CC2)ccc1Nc1ncc2c(n1)N(C1CCCC1)CCC(=O)N2C(C)C [XMD11-85h]; conditions: top dose 10 µM; top dose inferred
Experimental: (§1)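 Human cancer cell lines in 384-well plates, medium with 10% serum, drug for 72 h over a 256-fold dose range (nine 2-fold or five 4-fold steps up to the top dose). Adherent lines were fixed and stained with the nucleic acid dye Syto60, suspension lines read with resazurin; signal relative to control wells, capped at 0 and 100%. One two-parameter sigmoid per drug and line, fitted in a mixed model over all curves with the slope shared within a line.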

[2] = compound: Cc1cc([C@@H](C)Nc2ccccc2C(=O)O)c2nc(N3CCOCC3)cc(=O)n2c1 [AZD6482]
Experimental: as §1

[3] = compound: Cn1ncnc1[C@H]1c2n[nH]c(=O)c3cc(F)cc(c23)N[C@@H]1c1ccc(F)cc1 [BMN-673]; conditions: top dose 10 µM; top dose inferred
Experimental: as §1

[4] = compound: NS(=O)(=O)OC[C@@H]1C[C@@H](n2ccc3c(N[C@H]4CCc5ccccc54)ncnc32)C[C@@H]1O [MLN4924]; conditions: top dose 1 µM; top dose inferred
Experimental: as §1

[5] = top dose 5 µM, screen: GDSC drug entry 1066, top dose inferred
[6] = top dose 5.12 µM, screen: GDSC drug entry 156

## CHSA0011 (chondrosarcoma, adherent)
[1]
  AUC: 0.916
  IC50: > 10 µM
[2]; [5]
  AUC: 0.898
  IC50: > 5 µM
[2]; [6]
  AUC: 0.945
  IC50: > 5.12 µM
[3]
  AUC: 0.824
  IC50: 9.49 µM
[4]
  AUC: 0.931
  IC50: > 1 µM

## CHSA0108 (chondrosarcoma, adherent)
[1]
  AUC: 0.856
  IC50: > 10 µM
[2]; [5]
  AUC: 0.855
  IC50: > 5 µM
[2]; [6]
  AUC: 0.811
  IC50: 3.26 µM
[3]
  AUC: 0.877
  IC50: > 10 µM
[4]
  AUC: 0.786
  IC50: 0.506 µM

## CHSA8926 (chondrosarcoma, adherent)
[1]
  AUC: 0.942
  IC50: > 10 µM
[2]; [5]
  AUC: 0.886
  IC50: > 5 µM
[2]; [6]
  AUC: 0.879
  IC50: > 5.12 µM
[3]
  AUC: 0.937
  IC50: > 10 µM
[4]
  AUC: 0.966
  IC50: > 1 µM

## CL-34 (large intestine, adherent)
[1]
  AUC: 0.986
  IC50: > 10 µM
[2]; [5]
  AUC: 0.987
  IC50: > 5 µM
[3]
  AUC: 0.973
  IC50: > 10 µM
[4]
  AUC: 0.809
  IC50: 0.588 µM

## COLO-668 (small cell lung carcinoma, adherent)
[1]
  AUC: 0.987
  IC50: > 10 µM
[2]; [5]
  AUC: 0.895
  IC50: > 5 µM
[2]; [6]
  AUC: 0.926
  IC50: > 5.12 µM
[3]
  AUC: 0.797
  IC50: 4.72 µM
[4]
  AUC: 0.87
  IC50: 0.933 µM

## COLO-684 (endometrium, suspension)
[1]
  AUC: 0.947
  IC50: > 10 µM
[2]; [5]
  AUC: 0.782
  IC50: 2.37 µM
[2]; [6]
  AUC: 0.745
  IC50: 1.78 µM
[3]
  AUC: 0.962
  IC50: > 10 µM
[4]
  AUC: 0.922
  IC50: > 1 µM

## COLO-783 (melanoma, adherent)
[1]
  AUC: 0.99
  IC50: > 10 µM
[2]; [5]
  AUC: 0.955
  IC50: > 5 µM
[2]; [6]
  AUC: 0.986
  IC50: > 5.12 µM
[3]
  AUC: 0.936
  IC50: > 10 µM
[4]
  AUC: 0.889
  IC50: > 1 µM

## COLO-800 (melanoma, adherent)
[1]
  AUC: 0.906
  IC50: > 10 µM
[2]; [5]
  AUC: 0.969
  IC50: > 5 µM
[3]
  AUC: 0.04
  IC50: < 0.0391 µM
[4]
  AUC: 0.512
  IC50: 0.0671 µM

## COR-L23 (large cell lung carcinoma, adherent)
[1]
  AUC: 0.986
  IC50: > 10 µM
[2]; [5]
  AUC: 0.941
  IC50: > 5 µM
[2]; [6]
  AUC: 0.974
  IC50: > 5.12 µM
[3]
  AUC: 0.901
  IC50: > 10 µM
[4]
  AUC: 0.913
  IC50: > 1 µM

## COR-L95 (small cell lung carcinoma, adherent)
[1]
  AUC: 0.981
  IC50: > 10 µM
[2]; [5]
  AUC: 0.987
  IC50: > 5 µM
[2]; [6]
  AUC: 0.985
  IC50: > 5.12 µM
[3]
  AUC: 0.927
  IC50: > 10 µM
[4]
  AUC: 0.947
  IC50: > 1 µM

## Calu-3 (lung adenocarcinoma, adherent)
[1]
  AUC: 0.979
  IC50: > 10 µM
[2]; [5]
  AUC: 0.941
  IC50: > 5 µM
[2]; [6]
  AUC: 0.795
  IC50: 3.08 µM
[3]
  AUC: 0.75
  IC50: 4.01 µM
[4]
  AUC: 0.858
  IC50: > 1 µM

## Capan-2 (pancreas, adherent)
[1]
  AUC: 0.983
  IC50: > 10 µM
[2]; [5]
  AUC: 0.981
  IC50: > 5 µM
[2]; [6]
  AUC: 0.954
  IC50: > 5.12 µM
[3]
  AUC: 0.894
  IC50: > 10 µM
[4]
  AUC: 0.966
  IC50: > 1 µM

## D-263MG (glioma, adherent)
[1]
  AUC: 0.934
  IC50: > 10 µM
[2]; [5]
  AUC: 0.74
  IC50: 1.78 µM
[2]; [6]
  AUC: 0.899
  IC50: > 5.12 µM
[3]
  AUC: 0.829
  IC50: 8.08 µM
[4]
  AUC: 0.824
  IC50: 0.77 µM

## D-392MG (glioma, adherent)
[1]
  AUC: 0.962
  IC50: > 10 µM
[2]; [5]
  AUC: 0.871
  IC50: > 5 µM
[2]; [6]
  AUC: 0.83
  IC50: 4.99 µM
[3]
  AUC: 0.745
  IC50: 4.16 µM
[4]
  AUC: 0.743
  IC50: 0.407 µM

## D-542MG (glioma, adherent)
[1]
  AUC: 0.972
  IC50: > 10 µM
[2]; [5]
  AUC: 0.931
  IC50: > 5 µM
[2]; [6]
  AUC: 0.693
  IC50: 1.27 µM
[3]
  AUC: 0.912
  IC50: > 10 µM
[4]
  AUC: 0.972
  IC50: > 1 µM

## DG-75 (Burkitt lymphoma, suspension)
[1]
  AUC: 0.878
  IC50: > 10 µM
[2]; [5]
  AUC: 0.68
  IC50: 1 µM
[2]; [6]
  AUC: 0.987
  IC50: > 5.12 µM
[3]
  AUC: 0.932
  IC50: > 10 µM
[4]
  AUC: 0.948
  IC50: > 1 µM

## EMC-BAC-1 (lung adenocarcinoma, adherent)
[1]
  AUC: 0.931
  IC50: > 10 µM
[3]
  AUC: 0.844
  IC50: 8.7 µM
[4]
  AUC: 0.952
  IC50: > 1 µM

## G-MEL (melanoma, adherent)
[1]
  AUC: 0.938
  IC50: > 10 µM
[2]; [5]
  AUC: 0.796
  IC50: 2.31 µM
[2]; [6]
  AUC: 0.609
  IC50: 0.634 µM
[4]
  AUC: 0.657
  IC50: 0.17 µM

## GAK (melanoma, adherent)
[1]
  AUC: 0.953
  IC50: > 10 µM
[2]; [6]
  AUC: 0.883
  IC50: 5.03 µM
[4]
  AUC: 0.839
  IC50: 0.636 µM

## HCC38 (breast, adherent)
[1]
  AUC: 0.968
  IC50: > 10 µM
[2]; [5]
  AUC: 0.959
  IC50: > 5 µM
[2]; [6]
  AUC: 0.818
  IC50: 3.19 µM
[4]
  AUC: 0.829
  IC50: 0.689 µM

## HCC1937 (breast, adherent)
[1]
  AUC: 0.969
  IC50: > 10 µM
[2]; [5]
  AUC: 0.928
  IC50: > 5 µM
[2]; [6]
  AUC: 0.858
  IC50: > 5.12 µM
[4]
  AUC: 0.872
  IC50: > 1 µM

## HT-29 (large intestine, adherent)
[1]
  AUC: 0.94
  IC50: > 10 µM
[2]; [5]
  AUC: 0.986
  IC50: > 5 µM
[2]; [6]
  AUC: 0.951
  IC50: > 5.12 µM
[4]
  AUC: 0.86
  IC50: 0.833 µM

## Jurkat (T-cell leukaemia, suspension)
[1]
  AUC: 0.91
  IC50: 9.73 µM
[2]; [5]
  AUC: 0.977
  IC50: > 5 µM
[4]
  AUC: 0.705
  IC50: 0.208 µM

## MDA-MB-468 (breast, adherent)
[1]
  AUC: 0.951
  IC50: > 10 µM
[4]
  AUC: 0.771
  IC50: 0.37 µM

## NCI-H196 (small cell lung carcinoma, adherent)
[1]
  AUC: 0.987
  IC50: > 10 µM
[2]; [5]
  AUC: 0.942
  IC50: > 5 µM
[2]; [6]
  AUC: 0.931
  IC50: > 5.12 µM
[4]
  AUC: 0.8
  IC50: 0.508 µM

## NCI-H929 (myeloma, suspension)
[1]
  AUC: 0.896
  IC50: 9.06 µM
[2]; [5]
  AUC: 0.719
  IC50: 1.16 µM
[4]
  AUC: 0.983
  IC50: > 1 µM

## NOMO-1 (acute myeloid leukaemia, suspension)
[1]
  AUC: 0.868
  IC50: > 10 µM
[2]; [5]
  AUC: 0.785
  IC50: 2.45 µM
[2]; [6]
  AUC: 0.801
  IC50: 2.91 µM
[4]
  AUC: 0.738
  IC50: 0.332 µM

## SW620 (large intestine, adherent)
[1]
  AUC: 0.984
  IC50: > 10 µM
[2]; [5]
  AUC: 0.959
  IC50: > 5 µM
[2]; [6]
  AUC: 0.979
  IC50: > 5.12 µM
[4]
  AUC: 0.901
  IC50: > 1 µM

## TC-71 (Ewing sarcoma, adherent)
[1]
  AUC: 0.967
  IC50: > 10 µM
[2]; [5]
  AUC: 0.983
  IC50: > 5 µM
[2]; [6]
  AUC: 0.992
  IC50: > 5.12 µM
[4]
  AUC: 0.789
  IC50: 0.362 µM

Lines with a small IC50 respond at low doses; a limit (>, <) means that the fit lies beyond the doses tested. AUC is the area under the same curve over the 256-fold range up to the top dose, as a fraction; values near 1 show little effect. A top dose marked as inferred is not printed in the source and was worked back from the curve model. For some assays here: An entry number marks a drug with two screens in the source, which often give different values.
